Test results from PubChem BioAssay (NCI).
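Each compound was tested at five concentrations against cells in 96-well plates for 48 hours. TGI: concentration producing complete growth inhibition.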

Legend:
Assay in all cases: inhibition of tumour cell growth, NCI panel, 48 h
HOP-62 NSCLC = system: HOP-62 NSCLC
TK-10 renal = system: TK-10 renal
SK-MEL-5 melanoma = system: SK-MEL-5 melanoma
OVCAR-8 ovarian = system: OVCAR-8 ovarian
SK-MEL-28 melanoma = system: SK-MEL-28 melanoma
K-562 leukemia = system: K-562 leukemia
KM12 colon = system: KM12 colon
SF-295 CNS = system: SF-295 CNS
SF-539 CNS = system: SF-539 CNS
MCF7 breast = system: MCF7 breast
UACC-257 melanoma = system: UACC-257 melanoma
HCC-2998 colon = system: HCC-2998 colon
SW-620 colon = system: SW-620 colon
SR leukemia = system: SR leukemia
OVCAR-5 ovarian = system: OVCAR-5 ovarian
SK-OV-3 ovarian = system: SK-OV-3 ovarian
A549 NSCLC = system: A549 NSCLC
MDA-MB-435 = system: MDA-MB-435
PC-3 prostate = system: PC-3 prostate
IGROV1 ovarian = system: IGROV1 ovarian
RXF 393 renal = system: RXF 393 renal
HL-60(TB) leukemia = system: HL-60(TB) leukemia
HT29 colon = system: HT29 colon
EKVX NSCLC = system: EKVX NSCLC
NCI-H226 lung = system: NCI-H226 lung
ACHN renal = system: ACHN renal
OVCAR-4 ovarian = system: OVCAR-4 ovarian
NCI-H522 lung = system: NCI-H522 lung
U251 CNS = system: U251 CNS
SNB-75 CNS = system: SNB-75 CNS
SNB-19 CNS = system: SNB-19 CNS
BT-549 breast = system: BT-549 breast
NCI-H460 lung = system: NCI-H460 lung
UO-31 renal = system: UO-31 renal
NCI/ADR-RES ovarian = system: NCI/ADR-RES ovarian
MOLT-4 leukemia = system: MOLT-4 leukemia
HS 578T breast = system: HS 578T breast
OVCAR-3 ovarian = system: OVCAR-3 ovarian
HCT-15 colon = system: HCT-15 colon
CCRF-CEM leukemia = system: CCRF-CEM leukemia
M14 melanoma = system: M14 melanoma
SF-268 CNS = system: SF-268 CNS
HOP-92 NSCLC = system: HOP-92 NSCLC
UACC-62 melanoma = system: UACC-62 melanoma
SK-MEL-2 melanoma = system: SK-MEL-2 melanoma
RPMI-8226 leukemia = system: RPMI-8226 leukemia
NCI-H23 lung = system: NCI-H23 lung

## O=C(/C=C/c1ccccc1)Nc1ccccc1F
HOP-62 NSCLC
  TGI: > 100 µM
TK-10 renal
  TGI: > 100 µM
SK-MEL-5 melanoma
  TGI: > 100 µM
OVCAR-8 ovarian
  TGI: > 100 µM
SK-MEL-28 melanoma
  TGI: > 100 µM
K-562 leukemia
  TGI: > 100 µM
KM12 colon
  TGI: > 100 µM
SF-295 CNS
  TGI: > 100 µM
SF-539 CNS
  TGI: > 100 µM
MCF7 breast
  TGI: > 100 µM
UACC-257 melanoma
  TGI: > 100 µM
HCC-2998 colon
  TGI: > 100 µM
SW-620 colon
  TGI: > 100 µM
SR leukemia
  TGI: > 100 µM
OVCAR-5 ovarian
  TGI: > 100 µM
SK-OV-3 ovarian
  TGI: > 100 µM
A549 NSCLC
  TGI: > 100 µM
MDA-MB-435
  TGI: > 100 µM
PC-3 prostate
  TGI: > 100 µM
IGROV1 ovarian
  TGI: > 100 µM
RXF 393 renal
  TGI: > 100 µM
HL-60(TB) leukemia
  TGI: 85.2 µM
HT29 colon
  TGI: > 100 µM
EKVX NSCLC
  TGI: > 100 µM
NCI-H226 lung
  TGI: > 100 µM
ACHN renal
  TGI: > 100 µM
OVCAR-4 ovarian
  TGI: > 100 µM
NCI-H522 lung
  TGI: > 100 µM
U251 CNS
  TGI: > 100 µM
SNB-75 CNS
  TGI: > 100 µM
SNB-19 CNS
  TGI: > 100 µM
BT-549 breast
  TGI: > 100 µM
NCI-H460 lung
  TGI: > 100 µM
UO-31 renal
  TGI: > 100 µM
NCI/ADR-RES ovarian
  TGI: > 100 µM
MOLT-4 leukemia
  TGI: 51.2 µM
HS 578T breast
  TGI: > 100 µM
OVCAR-3 ovarian
  TGI: > 100 µM
HCT-15 colon
  TGI: > 100 µM
CCRF-CEM leukemia
  TGI: > 100 µM
M14 melanoma
  TGI: > 100 µM
SF-268 CNS
  TGI: > 100 µM
HOP-92 NSCLC
  TGI: > 100 µM
UACC-62 melanoma
  TGI: > 100 µM
SK-MEL-2 melanoma
  TGI: > 100 µM
RPMI-8226 leukemia
  TGI: > 100 µM
NCI-H23 lung
  TGI: > 100 µM
